# According to PubChem BioAssay (NCATS):
# This list was built around the results that the source calls inconclusive (neither active nor inactive); the mix of calls is not that of the screen. For part of these data: Potencies of inconclusive entries are left out as doubtful fits. Some compounds were tested as several samples or in several runs, with calls that do not always agree. Active and inactive are the calls of the source. Unless noted, calls follow the shape of the dose curve; as a rule, active = well fitted curve in the direction sought with a large enough effect; inconclusive = small, poorly fitted or top-dose-only effect, or another doubt; inactive = no such curve, though single readings can be large; an effect the other way counts as inactive or inconclusive.
# What was measured:
# [1] = qHTS of pediatric cancer cell lines to identify multiple opportunities for drug repurposing: Primary screen for SJ-GBM2 cells (AID 1347091); conditions: SJ-GBM2 viability, CellTiter-Glo luminescence, 48 h; series mostly up to 46 µM; also: potency is read from the fitted curve at half-maximal effect
# Summary of the method: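 Eight- or eleven-point concentration series, 48 h treatment at 37 degrees C in growth media; readout CellTiter-Glo luminescence. Potency and efficacy were taken from the concentration-response curves.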
# [2] = qHTS of pediatric cancer cell lines to identify multiple opportunities for drug repurposing: Primary screen for A673 cells (AID 1347092); conditions: A673 Ewing sarcoma viability, CellTiter-Glo ATP luminescence, 48 h; activity change, negative = cytotoxic: at 46 µM (top of the series); also: nearly all actives have a fitted effect of over 45% in size
# Summary of the method: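 A673 cells (500-1,000 cells/well in growth media) were pre-incubated 5 h at 37 degrees C, then exposed to compounds for 48 h. Viability was read as CellTiter-Glo luminescence; concentration-response curves came directly from the primary screen.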
# [3] = qHTS of pediatric cancer cell lines to identify multiple opportunities for drug repurposing: Primary screen for SK-N-MC cells (AID 1347093); conditions: SK-N-MC viability, CellTiter-Glo luminescence, 48 h; activity change, negative = cytotoxic: at 46 µM (top of the series); also: potency is read from the fitted curve at half-maximal effect
# Summary of the method: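 Metabolically active cells were quantified by ATP-dependent luminescence (CellTiter-Glo, 15 min at room temperature) following 48 h treatment. Cells had been plated at 500-1,000 per well and settled for 5 h beforehand.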
# [4] = qHTS of pediatric cancer cell lines to identify multiple opportunities for drug repurposing: Primary screen for BT-12 cells (AID 1347101); conditions: BT-12 viability, CellTiter-Glo luminescence, 48 h; series mostly up to 57.3 µM; also: nearly all actives have a fitted effect of over 25% in size; also: potency is read from the fitted curve at half-maximal effect
# Summary of the method: (§1)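 Cells (500-1,000/well) rested 5 h, then received compounds for 48 h; metabolically active cells were measured by CellTiter-Glo luminescence. Final concentrations spanned up to 46 µM (MIPE, 11-point) or 0.59 nM-46 µM (NPC, 8-point) in primary screens, 11-point in follow-ups.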
# [5] = qHTS of pediatric cancer cell lines to identify multiple opportunities for drug repurposing: Primary screen for OHS-50 cells (AID 1347103); conditions: OHS-50 osteosarcoma viability, CellTiter-Glo luminescence, 48 h; activity change, negative = cytotoxic: at 57.3 µM (top of the series); also: nearly all actives have a fitted effect of over 40% in size; also: potency is read from the fitted curve at half-maximal effect
# Summary of the method: as §1
# [6] = Drug repurposing screens with cells derived from glioblastoma tumor samples (AID 1345199); conditions: GBM patient neurospheres viability, ATP luminescence, 48 h; Potency: tumour line A unless noted; series mostly up to 46 µM; also: nearly all actives have a fitted effect of over 40% in size
# Summary of the method: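 Four patient lines of CD133+ GBM neurospheres were screened at several concentrations; hits were retested in those lines plus three slower-growing GBM lines, using 48-hour treatment and ATP-based viability.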
# [7] = qHTS of pediatric cancer cell lines to identify multiple opportunities for drug repurposing: Primary screen for SK-N-SH cells (AID 1347098); conditions: SK-N-SH viability, CellTiter-Glo luminescence, 48 h; series mostly up to 57 µM; also: nearly all actives have a fitted effect of over 65% in size; also: potency is read from the fitted curve at half-maximal effect;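 as to activity change, negative = cytotoxic: DMSO served as neutral control and bortezomib at 2.3 µM as positive control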
# Summary of the method: as §1
# [8] = qHTS of pediatric cancer cell lines to identify multiple opportunities for drug repurposing: Primary screen for NB-EBc1 cells (AID 1347095); conditions: NB-EBc1 neuroblastoma viability, CellTiter-Glo luminescence, 48 h; series mostly up to 46 µM; also: potency is read from the fitted curve at half-maximal effect
# Summary of the method: (§2)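 Cells seeded at 500-1,000 cells/well in growth media, rested 5 hours at 37 degrees C, 5% CO2, then dosed; MIPE compounds at 11-point (from 0.78 nM) and NPC at 8-point (from 0.59 nM) final concentrations. Viability by CellTiter-Glo luminescence after 48 hours.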
# [9] = qHTS of pediatric cancer cell lines to identify multiple opportunities for drug repurposing: Primary screen for Saos-2 cells (AID 1347097); conditions: Saos-2 viability, CellTiter-Glo ATP luminescence, 48 h; activity change, negative = cytotoxic: at 46 µM (top of the series); also: potency is read from the fitted curve at half-maximal effect; nearly all actives have a fitted effect of over 40% in size
# Summary of the method: as §2
# [10] = qHTS of pediatric cancer cell lines to identify multiple opportunities for drug repurposing: Primary screen for Rh41 cells (AID 1347108); conditions: Rh41 rhabdomyosarcoma viability, CellTiter-Glo luminescence, 48 h; series mostly up to 46 µM;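 also: luminescence drop marks cytotoxic hits; nearly all actives have a fitted effect of over 70% in size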
# Summary of the method: as §2
# [11] = A High-Content qHTS Against Drug Library for the Identification of Small Molecules that Inhibit DYT1 Early Onset Primary Dystonia-Associated Cell Pathology (AID 1645839; calls by dose curve; also: potency is read from the fitted curve at half-maximal effect); conditions: HEK293 Flp-In EGFP-delE TorsinA, punctate imaging, 48 h; series mostly up to 46.1 µM
# Summary of the method: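 Readout: %pathology, the punctate EGFP-TorsinA distribution from imaging, as the primary channel and cell count as the toxicity counterscreen. HEK293 Flp-In cells expressing delE TorsinA were induced with tetracycline and treated with compound for 48 h.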
# [12] = test system: CP265; test: qHTS profiling for inhibitors of Plasmodium falciparum proliferation (AID 504749); also: nearly all actives have a fitted effect of over 60% in size; conditions: P. falciparum in erythrocytes, SYBR Green DNA, 72 h; series mostly up to 28.7 µM
# Summary of the method: (§3)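 P. falciparum-infected erythrocytes (0.3% parasitemia, 2.5% hematocrit final) were exposed to compounds for 72 h at 37 C in 5% CO2, then lysed with SYBR Green buffer overnight at room temperature; parasite DNA fluorescence was normalized to artemisinin and DMSO controls.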
# [13] = test system: CP286; test: as above; conditions: P. falciparum in erythrocytes, SYBR Green DNA, 72 h; series mostly up to 28.7 µM
# Summary of the method: as §3
# [14] = test system: CP260; test: as above; conditions: P. falciparum in erythrocytes, SYBR Green DNA, 72 h; series mostly up to 28.7 µM
# Summary of the method: as §3
# [15] = qHTS of pediatric cancer cell lines to identify multiple opportunities for drug repurposing: Primary screen for RD cells (AID 1347104); conditions: RD rhabdomyosarcoma viability, CellTiter-Glo luminescence, 48 h; series mostly up to 46 µM; also: nearly all actives have a fitted effect of over 55% in size
# Summary of the method: as §2
# [16] = qHTS of pediatric cancer cell lines to identify multiple opportunities for drug repurposing: Primary screen for Rh30 cells (AID 1347107); conditions: Rh30 rhabdomyosarcoma viability, CellTiter-Glo luminescence, 48 h; series mostly up to 46 µM; also: nearly all actives have a fitted effect of over 75% in size
# Summary of the method: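 Cells (500-1,000/well) in growth media were settled 5 h at 37 degrees C, then given compounds for 48 h. Viability was read as CellTiter-Glo luminescence. Primary runs used MIPE at 11 points (0.78 nM-46 µM) and NPC at 8 points (0.59 nM-46 µM); follow-ups used 11 points.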
# [17] = target: Cytochrome P450 2D6 (Homo sapiens) (UniProt P10635); test: Cytochrome P450 family 2 subfamily D member 6 (CYP2D6) small molecule antagonists: luciferase biochemical (cell-free) qHTS assay (AID 1645840; active = well fitted curve in the direction sought with a large enough effect in the repeat runs; inconclusive = weak or mixed curves; inactive = no such curve, though single readings can be large; an effect the other way counts as inactive or inconclusive; also: nearly all actives have a fitted effect of over 55% in size; also: potency is read from the fitted curve at half-maximal effect); conditions: P450-Glo CYP2D6 enzyme, luciferin luminescence, 1 h; series mostly up to 57.4 µM
# UniProt P10635, sequence (P10635 whole entry, looked up): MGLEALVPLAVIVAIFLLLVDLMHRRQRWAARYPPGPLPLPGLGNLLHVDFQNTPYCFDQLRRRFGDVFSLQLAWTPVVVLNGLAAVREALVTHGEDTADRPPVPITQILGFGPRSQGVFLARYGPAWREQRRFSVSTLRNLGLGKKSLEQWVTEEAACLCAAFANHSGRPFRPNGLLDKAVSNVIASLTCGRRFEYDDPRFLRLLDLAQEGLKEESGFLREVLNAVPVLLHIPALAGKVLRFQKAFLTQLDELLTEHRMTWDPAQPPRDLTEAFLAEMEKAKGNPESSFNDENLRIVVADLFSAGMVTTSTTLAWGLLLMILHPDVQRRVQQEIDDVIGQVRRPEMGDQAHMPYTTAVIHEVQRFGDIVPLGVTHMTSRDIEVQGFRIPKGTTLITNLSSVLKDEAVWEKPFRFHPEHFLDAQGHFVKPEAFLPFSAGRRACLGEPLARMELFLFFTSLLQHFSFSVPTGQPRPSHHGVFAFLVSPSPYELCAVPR
# Summary of the method: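 P450-Glo luminescent screen: recombinant CYP2D6 enzyme–proluciferin substrate mix preincubated with compound 10 min at room temperature, then NADPH regeneration added for 1 h at room temperature. Detection reagent added for 20 min; luciferin light read as relative luminescence units.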
# [18] = target: Phospholipid hydroperoxide glutathione peroxidase GPX4 (Homo sapiens) (UniProt P36969); test: Primary qHTS Assay for Inhibitors of Recombinant Selenoprotein Glutathione Peroxidase 4 (GPX4) (AID 1845192); conditions: recombinant GPX4, GR-coupled NADPH fluorescence, 15 min; series mostly up to 50 µM; also: nearly all actives have a fitted effect of over 65% in size; also: potency is read from the fitted curve at half-maximal effect
# UniProt P36969, sequence (P36969 whole entry, looked up): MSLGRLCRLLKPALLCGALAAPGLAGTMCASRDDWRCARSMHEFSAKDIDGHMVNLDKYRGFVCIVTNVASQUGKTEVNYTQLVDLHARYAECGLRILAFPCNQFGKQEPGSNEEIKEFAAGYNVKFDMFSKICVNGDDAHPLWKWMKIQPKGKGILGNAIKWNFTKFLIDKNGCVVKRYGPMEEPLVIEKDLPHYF
# Summary of the method: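 GR-coupled readout: 100 nM GR, 1 mM GSH, 0.5 mM NADPH; NADPH fluorescence (ex 340/em 450 nm) read at t=0 and after 15 min RT. GPX4 200 nM, preincubated 30 min with compound; substrate 0.5 mM CHP.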
# Tags tell the direction and shape of the fitted curve.
smiles,measurement,setting,value
NC(=O)CC[C@@H]1NC(=O)[C@H](Cc2ccccc2)NC(=O)[C@H](Cc2ccc(O)cc2)NC(=O)CCSSC[C@@H](C(=O)N2CCC[C@H]2C(=O)N[C@@H](CCCN=C(N)N)C(=O)NCC(N)=O)NC(=O)[C@H](CC(N)=O)NC1=O,Potency,[1],inactive
same,Potency,[2],inactive
same,Potency,[3],inactive
same,Potency,[4],inactive
same,Potency,[5],inactive
same,Potency,[6],inactive
Nc1ccc(S(=O)(=O)Nc2nccs2)cc1,Potency,[7],inactive
NC(=O)c1ncn([C@@H]2O[C@H](CO)[C@@H](O)[C@H]2O)n1,Potency,[1],inactive
same,Potency,[8],"inconclusive [cytotoxic, single point]"
same,Potency,[7],inactive
same,Potency,[4],inactive
same,Potency,[5],"inconclusive [cytotoxic, partial curve]"
O=C(OCCOCCO)c1ccccc1Nc1cccc(C(F)(F)F)c1,Potency,[1],"inconclusive [cytotoxic, single point]"
same,Potency,[8],"inconclusive [cytotoxic, single point]"
same,Potency,[9],"inconclusive [cytotoxic, single point]"
same,Potency,[4],"inconclusive [cytotoxic, single point]"
same,Potency,[10],inactive
same,Potency,[11],"inconclusive [inhibitor, single point]"
same,Potency,[12],inactive
same,Potency,[13],inactive
Nc1ccc(/C=C/c2ccc(N)cc2S(=O)(=O)O)c(S(=O)(=O)O)c1,Potency,[14],inactive
same,Potency,[13],inactive
O=c1[nH]c2cc(C(F)(F)F)c(N3CCOCC3)cc2n(CP(=O)(O)O)c1=O,Potency,[2],inactive
same,Potency,[3],"inconclusive [cytotoxic, partial curve, poor fit]"
same,Potency,[15],inactive
same,Potency,[12],inactive
Cc1ccc2c(c1)c1c3n2CCNC3CCC1 (stereo not drawn),Potency,[5],"inconclusive [cytotoxic, single point]"
same,Potency,[16],inactive
same,Potency,[11],"inconclusive [inhibitor, single point]"
Cc1ccc(C)c(NC(=O)CNS(=O)(=O)c2ccc3[nH]c(=O)oc3c2)c1,Potency,[17],"inconclusive [inhibitor, single point]"
COc1cccc2cc3c(c(O[C@@H]4O[C@H](CO[C@@H]5O[C@H](CO)[C@@H](O)[C@H](O)[C@H]5O)[C@@H](O)[C@H](O)[C@H]4O)c12)C(C)OC3=O (stereo partly drawn),Potency,[18],active: 9.88 µM
OC[C@@H](O)[C@@H](O[C@@H]1O[C@H](CO)[C@H](O)[C@H](O)[C@H]1O)[C@H](O)[C@@H](O)CO,Potency,[3],"inconclusive [cytotoxic, single point]"
same,Potency,[15],inactive
same,Potency,[10],inactive
same,Potency,[6],inactive
OCc1ccc(Cl)cc1Cl,Potency,[8],inactive
same,Potency,[7],"inconclusive [cytotoxic, single point]"
same,Potency,[10],inactive
same,Potency,[6],inactive
COc1ccc([C@@H]2Sc3ccccc3N(CCN(C)C)C(=O)[C@@H]2OC(C)=O)cc1,Potency,[3],inactive
same,Potency,[4],inactive
same,Potency,[10],inactive
same,Potency,[17],"inconclusive [inhibitor, partial curve, poor fit] and inactive"
same,Potency,[14],inactive
same,Potency,[13],inactive
CC1=CC2C(CC1OC1OC(CO)C(O)C(O)C1O)C(C)CC(=O)C2C(C)C (stereo not drawn),Potency,[18],inactive
O=C(NC1Cc2ccccc2N(C[C@@H](O)CO)C1=O)c1cc2cc(Cl)sc2[nH]1 (stereo partly drawn),Potency,[17],"inconclusive [inhibitor, single point]"
Cc1cc(-n2c(=O)[nH]c(=O)n(C)c2=O)ccc1Oc1ccc(SC(F)(F)F)cc1,Potency,[18],active: 15.8 µM
